# Data as given in ChEMBL document CHEMBL4888484, “Replenishing the malaria drug discovery pipeline: Screening and hit evaluation of the MMV Hit Generation Library 1 (HGL1) against asexual blood stage Plasmodium falciparum ,using a nano luciferase reporter read-out” (2022).
# In all, about 150,000 compounds went through this assay and about 540 (0.36%) showed an effect of 50% or more. Some of the results follow.
# Test system: Plasmodium falciparum
# Test: Primary screen in NF54 nanoGlo assay, in single point, at 2uM, 72h; a lower Z score goes with more inhibition
# Assay type: functional, Erythrocyte
# Details: timepoint 72 hour
SMILES,% Inhibition,Z score
CCN1CCN(C(=O)c2cccc(-c3ccnc(OC)c3C#N)c2)CC1=O,-1%,0.21
COc1cc(C(=O)Nc2c(-c3cccc4ccccc34)c(=O)c3ccccc3n2C)cc(OC)c1OC,-6%,0.86
Cc1ccc(CN(Cc2ccccn2)C(=O)[C@@H]2CN(C)c3ccccc3O2)s1,31%,-2.91
CCNC(=O)CNC(=O)c1ccc(CC)o1,-6%,1.24
COc1cc(NS(=O)(=O)c2cc(C(=O)N3CCC3)ccc2OC)cc(OC)c1,-8%,1.01
Cc1cc(CNc2cccc(S(=O)(=O)NC3CC3)c2C)ccc1F,3%,-0.44
Cc1cc(N2CCC(CNC(=O)c3c(Cl)cnn3C)CC2)c2ccccc2n1,10%,-1.32
O=C1[C@@H]2C[C@H](O)CCN2C(=O)CN1Cc1cccc2ccccc12,3%,-0.31
CC[C@@H](Cc1cccc(Br)c1)C(=O)N(C)C,-1%,0.12
O=C(O)c1ccc(CN2CCC[C@H]2c2nccc(C(F)(F)F)n2)s1,-33%,3.58
O=C1C[C@H](COCc2ccccc2)c2c(-c3cccnc3)n[nH]c2N1,-8%,1.58
O=C1NCCCCC1NC[C@@H](O)c1ccc(C(F)(F)F)cc1 (stereo partly specified),-14%,1.5
O=C(NCCNS(=O)(=O)Cc1ccccc1)Nc1ccc(N2CCCC2=O)cc1,1%,-0.19
CC(C)OC(=O)N1CCC(NC(=O)N(C)C)CC1,14%,-1.67
Cc1nn(-c2ccccc2)c(Oc2ccc(Cl)cc2)c1CN(CC1CC1)C(=O)c1ccco1,2%,-0.3
N#Cc1cccc(OCCn2cc(Cl)c(=O)[nH]c2=O)c1,-17%,2.47
Cc1cc(N2CCNC2=O)ccc1NC(=O)c1cscn1,-16%,2.39
COC[C@H](C)NC(=O)c1ccc2c(c1)CN(CCN1CCCCC1)C2=O,-9%,1.94
CC1Oc2ccccc2C1NC(=O)NC1CCCC(F)(F)C1 (stereo unspecified),0%,0.01
O=C(c1cnc2cc(-c3ccccc3)nn2c1)c1cc(Cl)ccc1O,1%,-0.06
CC(C)CNC(=O)c1cc(C(C)C)n2nc(-c3ccccn3)cc2n1,5%,-0.68
Cc1cccc(-c2nc3cc(C)ccc3cc2CN2C[C@H](O)[C@@H](N(C)C)C2)c1,-11%,1.36

SMILES,% Inhibition,Z score
CCc1nc2c(N(C)CCc3scnc3C)ncnc2o1,-6%,1.12
C[C@H]1CCCN1S(=O)(=O)N(C)c1ccc(O)cc1,-3%,0.41
COc1cccc(CN2CC3(CCN(C(=O)[C@@H]4CCCO4)CC3)CC2=O)c1,-13%,1.74
CCCOc1cccc(-c2nc(N(C)C)n(CC)n2)c1,-16%,2.1
CN(CCC#N)C(=O)Nc1cccc2ccsc12,-12%,1.98
c1cc(-c2nc(-c3ccncc3)no2)cc(C2OCCO2)c1,30%,-3.36
CCCn1c(=O)c(N2CCN(C(=O)COc3ccc(C)c(C)c3)CC2)nc2ccccc21,3%,-0.45
COC(=O)c1cncnc1NCCc1ccc(C(F)(F)F)cn1,-15%,3.06
COc1ccc(CNC(=O)[C@@H]2CC(=O)c3cc(F)ccc3O2)cc1,-12%,1.79
CC(C)c1noc2ncc(C(=O)N3CCN(C)[C@H](c4nc(C5CC5)no4)C3)cc12,2%,-0.27
Cc1cc(C)cc(N(C)Cc2cn(C)c(=O)n(C)c2=O)c1,4%,-0.74
Cc1cc(C)c2[nH]c(C(=O)N(C)[C@H]3CCN(C)C3)c(C)c2c1,1%,-0.15
CC(C)(CC(=O)N1CCC2(CCO2)CC1)c1ccccc1,15%,-1.74
CCn1c(C2CCNCC2)nn(Cc2ccccc2C#N)c1=O,2%,-0.19
CN(Cc1ccccc1)C[C@H](NC(=O)OC(C)(C)C)C(=O)O,-9%,1.28
O=C(N[C@H]1CCOC[C@@H]1O)c1cc(CO)ccn1,-19%,1.68
O=C(COc1ccccc1)N1CCCN(C(=O)COc2ccccc2)CC1,34%,-3.85
Cc1nc(C(=O)N2CCS(=O)(=O)C(C)C2C)c2ccccn12 (stereo unspecified),-1%,0.13
O=C1c2ccccc2N[C@H](c2ccc3c(c2)OCCO3)N1C1CCCC1,-1%,0.15
C[C@@H](C(=O)N(CC(N)=O)Cc1ccccc1)c1cncnc1,-4%,0.36
CCC1(CC)C(NC(=O)N[C@@H]2C=C[C@H](CO)C2)C(C)C1OC (stereo partly specified),-10%,1.41
